Values marked as one replicate rest on one cluster of the flow cell; about a third of the high ones do not repeat.
Test system: ATP
Test: switch fluorescence ratio, 500 uM ATP over buffer (Cy3 cluster intensity, sum of 5 cycles each) (fold (ratio)); higher = stronger signal-on switching upon ATP binding; sequences stand for … in TCGTCGGCAGCGTCAGATGTGTATAAGAGACAGTTTTTTTTTTTTTTTTTTTTTTTTT…TC
Conditions: aptamer strand: ATP DNA aptamer (quencher-CACCTGGGGGAGTATTGCGGAGGAAGG + anchor), 100 nM annealed; ATP concentration: 500 uM; one replicate
How it was run: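 The fluorescence ratio divides summed target-cycle Cy3 intensity by summed buffer-cycle Cy3 intensity for each cluster and is averaged per switch-domain sequence. Cy3-labelled switching-strand clusters on a modified Illumina MiSeq flow-cell were annealed to 100 nM quencher-labelled ATP aptamer, then imaged in selection buffer and again after 15 min with 500 uM ATP at 22 °C. Five such cycles were run, with NaOH stripping and re-annealing between them, and clusters outside 100-1000 RFU were excluded.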
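Note: ATP exposure 15 min at 22 °C before imaging.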

CGTCCATGGG
switch fluorescence ratio: 0.952

AGACTCTAAG
switch fluorescence ratio: 1

TTTCGTCT
switch fluorescence ratio: 1.09

CATCGAGTCC
switch fluorescence ratio: 0.981

GGGACGGTCT
switch fluorescence ratio: 1.06

AACCATATGA
switch fluorescence ratio: 1.02

CGGGGGCGTG
switch fluorescence ratio: 0.931

TTAACGAAA
switch fluorescence ratio: 0.985

TATTCGATGG
switch fluorescence ratio: 0.966

GTAGGATGTT
switch fluorescence ratio: 0.963

GTGATGCCGA
switch fluorescence ratio: 0.962

GAGTGGCTAG
switch fluorescence ratio: 0.978

TCGAATGATG
switch fluorescence ratio: 1.11

ACAATGAAG
switch fluorescence ratio: 1.02

AGGATGGCT
switch fluorescence ratio: 0.986

AGGAAGTTAA
switch fluorescence ratio: 0.939

TAAGTAGTTA
switch fluorescence ratio: 1.04

ACGACCGTAA
switch fluorescence ratio: 1.18

TACATAACAT
switch fluorescence ratio: 1.08

GCAAGGCCGG
switch fluorescence ratio: 1.01

CCTGCGTTCC
switch fluorescence ratio: 1.2

CATCGGTGCA
switch fluorescence ratio: 0.992

TCAATCCTGG
switch fluorescence ratio: 1.02

TGCGTCTCGT
switch fluorescence ratio: 0.985

ACTTGTTTTC
switch fluorescence ratio: 0.963

GTTCCGGAAG
switch fluorescence ratio: 0.988

GTCGAGCTGT
switch fluorescence ratio: 0.965

CGTTACGGTA
switch fluorescence ratio: 1.12

TCAACACCGG
switch fluorescence ratio: 1.04

AGACTAGAAA
switch fluorescence ratio: 1

TGCCTGGCGT
switch fluorescence ratio: 1.01

ATAGTTCCTT
switch fluorescence ratio: 1.01

CGGCCGACAT
switch fluorescence ratio: 1.01

CGCTGCTTTA
switch fluorescence ratio: 1.09

GAACTTTATT
switch fluorescence ratio: 0.966

TGGGCCCCTC
switch fluorescence ratio: 1.01

ACCGTAATTG
switch fluorescence ratio: 1.23

CCATTAGTTA
switch fluorescence ratio: 1.03

TTATGCTTCC
switch fluorescence ratio: 1.88

CCCGCGGGG
switch fluorescence ratio: 1.08

AACGTAGACC
switch fluorescence ratio: 1.08

CAATGAGTGG
switch fluorescence ratio: 0.994

GTATTTAGGT
switch fluorescence ratio: 1.04

CCTATGGTTA
switch fluorescence ratio: 1.04

CGGCTAGTCA
switch fluorescence ratio: 1.02

CTATCACAGA
switch fluorescence ratio: 1.03

TTAAAGGTCA
switch fluorescence ratio: 0.956

CATCCGTTGG
switch fluorescence ratio: 1.46

CAGTTCATC
switch fluorescence ratio: 0.982

GACGGCTTT
switch fluorescence ratio: 0.96

GAAATAGCCA
switch fluorescence ratio: 0.986

GGGATGCGCC
switch fluorescence ratio: 1.01

CAGCAACCAT
switch fluorescence ratio: 1.04

CGCCAATGTA
switch fluorescence ratio: 0.995

CGGGGAATCT
switch fluorescence ratio: 1.05

TGGAGTGAAT
switch fluorescence ratio: 1

CAGGGTACCA
switch fluorescence ratio: 0.95

AGCCGTCCCG
switch fluorescence ratio: 0.964

AAAGCAGTCA
switch fluorescence ratio: 0.964

CGTGTCGGTT
switch fluorescence ratio: 0.986

CCCTATTGAT
switch fluorescence ratio: 0.97

TTGCTCGTAT
switch fluorescence ratio: 0.969

GGTTTACAT
switch fluorescence ratio: 1.01

CTAGAATCGT
switch fluorescence ratio: 1.02

CTTAAAGATG
switch fluorescence ratio: 0.995

CAGCCATGAC
switch fluorescence ratio: 1.12

TCGCCTCCTT
switch fluorescence ratio: 1.26

GAGTTTATTG
switch fluorescence ratio: 1

CTGATTTAA
switch fluorescence ratio: 1.01

TCCAAGGTTC
switch fluorescence ratio: 1.11

TTCGTGCCTG
switch fluorescence ratio: 1.03

ATCCGCCGAT
switch fluorescence ratio: 1.42

CCTTATGAAA
switch fluorescence ratio: 1

TGATTGTGCT
switch fluorescence ratio: 1.03

TAGAGATCAA
switch fluorescence ratio: 0.959

ACTAGAGGTG
switch fluorescence ratio: 1.13

GCGTGAGGAA
switch fluorescence ratio: 0.983

TCTCGCTGGA
switch fluorescence ratio: 0.985

ATTTGTAACG
switch fluorescence ratio: 0.997

TGTTAGACGA
switch fluorescence ratio: 1.01

TTCCACGTTA
switch fluorescence ratio: 1.22

GCAAGGTATA
switch fluorescence ratio: 1.02

ATGATTGTGT
switch fluorescence ratio: 1

GGTATCGTCC
switch fluorescence ratio: 1

GAAAGCCACA
switch fluorescence ratio: 1.03

TCGCTAGAAT
switch fluorescence ratio: 0.994

ACCTTTAAAC
switch fluorescence ratio: 1.05

AGATGAGAGG
switch fluorescence ratio: 0.954

GGGATAGAGT
switch fluorescence ratio: 0.961

TGATGGAGTG
switch fluorescence ratio: 1.01

AAGGTTTGAT
switch fluorescence ratio: 1.01

GGCTGCCTTT
switch fluorescence ratio: 0.987

GCTTGATAAT
switch fluorescence ratio: 1.03

CTTTTATCCG
switch fluorescence ratio: 1.04

CACTTGGCGC
switch fluorescence ratio: 0.945

CAGTTGCCAC
switch fluorescence ratio: 1.05

AGTCCCGGAC
switch fluorescence ratio: 1.01

AGGGGCATAA
switch fluorescence ratio: 1.01

CGCTCTATAG
switch fluorescence ratio: 1.12

TCCTATTGGT
switch fluorescence ratio: 1.01

CTGTTATTCG
switch fluorescence ratio: 0.927

TACCGCTGTA
switch fluorescence ratio: 1.14

ACCCTTTGCG
switch fluorescence ratio: 0.999

GCCTATGTAA
switch fluorescence ratio: 1.02

TAACGTCCGG
switch fluorescence ratio: 1

TATCAAGATA
switch fluorescence ratio: 1.01

GCAAATACAT
switch fluorescence ratio: 1.04

AGTTGCACGC
switch fluorescence ratio: 1.03

GAGAAACATC
switch fluorescence ratio: 0.942

TACGAACGA
switch fluorescence ratio: 1.48

GAACTACGGT
switch fluorescence ratio: 0.992

GTTAGAGGTC
switch fluorescence ratio: 0.957

GATATGCCTC
switch fluorescence ratio: 1.03

ATTTGGTCCA
switch fluorescence ratio: 0.994

GGAATGACCA
switch fluorescence ratio: 1

ATGGTAGAGG
switch fluorescence ratio: 0.96

CTGGCCAAG
switch fluorescence ratio: 1.02

CAGCTCTGCC
switch fluorescence ratio: 1.02

CCTTAAAAGA
switch fluorescence ratio: 1.01

AGGGCGTGTC
switch fluorescence ratio: 0.963

AAACCGTGTG
switch fluorescence ratio: 0.993

AAGCGCGT
switch fluorescence ratio: 1.04

AGAAGCGTTC
switch fluorescence ratio: 1.05

GAGACGCATT
switch fluorescence ratio: 1.63

ATTAAAATT
switch fluorescence ratio: 0.992

GGGTTAGGCC
switch fluorescence ratio: 0.997

TCTTGTAGAC
switch fluorescence ratio: 1.01

GCTCGACTGA
switch fluorescence ratio: 0.996

CAGTAGTCTC
switch fluorescence ratio: 1.06

AAGTCGTATT
switch fluorescence ratio: 1.01

TGGCCGTTGG
switch fluorescence ratio: 0.942

GGATTTCTGC
switch fluorescence ratio: 0.968

TGTTTCGCT
switch fluorescence ratio: 0.987

GAATGAAATG
switch fluorescence ratio: 1

CATTGGAGTG
switch fluorescence ratio: 0.969

ACAGAGCTCT
switch fluorescence ratio: 0.974

ACGGAGGAAC
switch fluorescence ratio: 1.02

TCAAATTCTT
switch fluorescence ratio: 0.978

TGAGAAATTG
switch fluorescence ratio: 0.941

TTGCGGATGT
switch fluorescence ratio: 0.967

CTTTTAAATT
switch fluorescence ratio: 0.994

GTCAGTGTTT
switch fluorescence ratio: 0.99

ATGGCTTAGG
switch fluorescence ratio: 0.974

TACCATTCTG
switch fluorescence ratio: 0.992

GTGTTAAATC
switch fluorescence ratio: 0.975

GATCGGATGA
switch fluorescence ratio: 1.27

TTGCAGGCAC
switch fluorescence ratio: 1.02

GCATAAATTG
switch fluorescence ratio: 1.02

GCCGGTGCTG
switch fluorescence ratio: 0.987

CCAAAATCTC
switch fluorescence ratio: 1.41

TTGTCTTCGT
switch fluorescence ratio: 0.967

AATAAAGTCC
switch fluorescence ratio: 0.99

GCATGCCCCG
switch fluorescence ratio: 0.976

CGATTTCATG
switch fluorescence ratio: 0.979

GATGACTAAG
switch fluorescence ratio: 1

GTATAAAACG
switch fluorescence ratio: 1.11

GTCGTCGGGC
switch fluorescence ratio: 1.05

ATGTAGGGCT
switch fluorescence ratio: 0.961

ACTTCGGGCT
switch fluorescence ratio: 0.986

CACTACCTCT
switch fluorescence ratio: 1.11

CAGATAGGAC
switch fluorescence ratio: 0.995

CGCGCAGGGT
switch fluorescence ratio: 1.01

CGGACTGAAG
switch fluorescence ratio: 0.959

TATTAAGCAT
switch fluorescence ratio: 1.01

ATTGCAGTGT
switch fluorescence ratio: 0.979

TTGACGTCCA
switch fluorescence ratio: 1.36

CTTGGCCGTA
switch fluorescence ratio: 1.02

GACTGGTAGG
switch fluorescence ratio: 0.979

CGATGATAT
switch fluorescence ratio: 0.992

TTCTGCTTTT
switch fluorescence ratio: 1.2

GAAAACCGTA
switch fluorescence ratio: 1.02

TATCTGAAA
switch fluorescence ratio: 0.987

CATCGGCCTA
switch fluorescence ratio: 1.11

CGTGGGTAGT
switch fluorescence ratio: 1.06

ACAAGTGGGC
switch fluorescence ratio: 1.01

CCCTTGAAAT
switch fluorescence ratio: 1.02

GCCTTAATGC
switch fluorescence ratio: 1.11

TAAGCGTCTT
switch fluorescence ratio: 0.965

AGGGTATCCC
switch fluorescence ratio: 0.994

CGTTTAGCGG
switch fluorescence ratio: 1

CGGGGTCGAA
switch fluorescence ratio: 1

TCCATAAAGG
switch fluorescence ratio: 0.99

TTTTAGAAG
switch fluorescence ratio: 1.01

GGTCCCATCC
switch fluorescence ratio: 1.06

TTAATTAGT
switch fluorescence ratio: 1.06

GAGGTCACGA
switch fluorescence ratio: 0.983

TTGAGGCAAG
switch fluorescence ratio: 1.23

TAAGTTGGAA
switch fluorescence ratio: 1.02

TTAGGACGGT
switch fluorescence ratio: 0.987

ATCATCATCA
switch fluorescence ratio: 1.03

TAAAGTTCGA
switch fluorescence ratio: 1.01

AAAACGGATA
switch fluorescence ratio: 0.98

TCGGCCGACT
switch fluorescence ratio: 1.06

TGAATTCGTC
switch fluorescence ratio: 0.968

GATTGGCGTG
switch fluorescence ratio: 1

ATAAAGGAAA
switch fluorescence ratio: 0.986

TTATGGATAC
switch fluorescence ratio: 1.76

CATAGGTGAT
switch fluorescence ratio: 1.01

GCACATTATA
switch fluorescence ratio: 1.02

AGCCTTGACT
switch fluorescence ratio: 1.01

AGGTTGCCAG
switch fluorescence ratio: 0.992

From the supplement of paper PMC10126150
